Source: PubChem BioAssay AID1347073 (National Center for Advancing Translational Sciences (NCATS), 2019)
In all, about 45,000 compounds went through this assay and about 200 (0.44%) were called active. About 7% were inconclusive and are not listed. Calls come from the whole dose curve; as a rule, active = well fitted activation curve with a large enough effect; inconclusive = small, poorly fitted or top-dose-only effect; inactive = no such curve, though single readings can be large or run the other way. Some of the results follow.

Assay: qHTS of TDP-43 Inhibitors: NCGC Sytravon Library Screen; note: nearly all actives have a fitted effect of over 55% in size; for growth rescue (activation): 0% is about no effect
Details: yeast TDP-43 toxicity rescue, BacTiter-Glo growth, 24 h; series mostly up to 46.1 µM; growth rescue (activation): at the top concentration
Method in brief: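 TDP-43-expressing yeast, pregrown in raffinose, seeded at OD600 0.02 in galactose medium with compound for 24 hr at 30 deg C. Growth read by BacTiter-Glo luminescence, so rescue of toxicity appears as activation.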
Potency is the fitted concentration of half-maximal effect.

Question: Which “growth rescue (activation)” value does the source give for `CN(c1ccccc1)S(=O)(=O)c1cccc(NC(=O)C2CCCO2)c1` (centres undefined) here?
Answer: inactive: -21.6%

Question: For `COCCn1nnnc1C(c1ccccc1OC)N1CCN(C(=O)c2ccco2)CC1` (centres undefined), which “growth rescue (activation)” value is on record?
Answer: inactive: -7.24%

Question: With `O=C1COc2ccc(C(=O)C[n+]3cccc(O)c3)cc2N1` as the compound, how does the “growth rescue (activation)” value read?
Answer: inactive: 23.6%

Question: For `Cc1ccc2c(Cl)c(C(=O)N/N=C/c3cccn3C)sc2c1`, which “growth rescue (activation)” value is on record?
Answer: inactive: 6.14%

Question: For `O=C(C/C=N\OCc1ccc(Cl)cc1Cl)Nc1ccccc1`, which “growth rescue (activation)” value is on record?
Answer: inactive: -12.5%

Question: With `COc1ccc(S(=O)(=O)NC(=O)C2(C)CCN2C(=O)Cc2cccc3ccccc23)cc1` (centres undefined) as the compound, how does the “growth rescue (activation)” value read?
Answer: inactive: 12.6%

Question: For `CC(C)CCN1CCN(Cc2ccon2)CC1CCO` (centres undefined), which “growth rescue (activation)” value is on record?
Answer: inactive: 8.9%

Question: With `O=C(O)c1ccc(-c2ccc(/C=c3/sc4nc5ccccc5n4c3=O)o2)cc1Cl` as the compound, how does the “growth rescue (activation)” value read?
Answer: inactive: -6.28%

Question: With `NS(=O)(=O)c1ccc(NC(=O)c2cccc(N3C(=O)c4ccccc4C3=O)c2)cc1` as the compound, how does the “growth rescue (activation)” value read?
Answer: inactive: 5.9%

Question: With `Nc1[nH]c(N=NC(=O)c2ccc(Cl)cc2)c2ccccc12` as the compound, how does the “growth rescue (activation)” value read?
Answer: inactive: -14.8%

Question: With `Nc1ncnc2nc(SCc3ccccc3)[nH]c12` as the compound, how does the “growth rescue (activation)” value read?
Answer: inactive: -15.2%

Question: With `Cc1ccc(-c2csc(NC(=O)CCNC(=O)c3ccc(Cl)cc3)n2)cc1` as the compound, how does the “growth rescue (activation)” value read?
Answer: inactive: 20.6%

Question: Which “growth rescue (activation)” value does the source give for `CC(=O)c1ccc(N2CCC(C(=O)O)CC2)cc1` here?
Answer: inactive: 12.9%

Question: For `CC1CCCN(C(=O)COc2ccc(-c3ccccc3)cc2)C1` (centres undefined), which Potency is on record?
Answer: active: 11.2 µM

Question: Which “growth rescue (activation)” value does the source give for `O=C(CSc1nnc(-c2c[nH]c3ccccc23)n1CC1CCCO1)Nc1ccc2c(c1)OCCO2` (centres undefined) here?
Answer: inactive: -5.65%

Question: With `CCC(C(=O)NC1CCCC1)N(Cc1ccco1)C(=O)CNS(=O)(=O)c1ccccc1` (centres undefined) as the compound, how does the “growth rescue (activation)” value read?
Answer: inactive: -13.3%

Question: With `CCN(CC)S(=O)(=O)c1cccc(NC(=O)CC2CCCC2)c1` as the compound, how does the “growth rescue (activation)” value read?
Answer: inactive: -19.4%

Question: With `COc1cccc(C(c2sc3nc(C)nn3c2O)N2CCC3(CC2)OCCO3)c1` (centres undefined) as the compound, how does the “growth rescue (activation)” value read?
Answer: inactive: 4.39%

Question: For `CN(C)S(=O)(=O)c1ccc(NC(=O)CCNC(=O)c2ccc([N+](=O)[O-])cc2)cc1`, which “growth rescue (activation)” value is on record?
Answer: inactive: 0.375%

Question: For `CCCn1nnnc1SCC(=O)N1CCCCC1`, which “growth rescue (activation)” value is on record?
Answer: inactive: -1.47%

Question: Which “growth rescue (activation)” value does the source give for `c1ccc(Cn2c(NCc3ccncc3)nc3ccccc32)cc1` here?
Answer: inactive: -1.64%

Question: With `COc1ccccc1NC(=O)c1c(Nc2ccccc2C)sc(C(=O)Nc2cccc(Cl)c2)c1N` as the compound, how does the “growth rescue (activation)” value read?
Answer: inactive: -33%

Question: For `COc1ccc(CCNc2nc(-c3cccc(NC(C)=O)c3)cs2)cc1OC`, which “growth rescue (activation)” value is on record?
Answer: inactive: 3.78%

Question: With `O=C(NCc1ccco1)c1ccccc1-c1nc(-c2ccc(F)cc2)no1` as the compound, how does the “growth rescue (activation)” value read?
Answer: inactive: -11.1%

Question: With `COc1cc(-c2cnc3c(NC=O)cc(-c4cccc(NC(C)=O)c4)cn23)cc(OC)c1OC` as the compound, how does the “growth rescue (activation)” value read?
Answer: inactive: -6.49%

Question: For `CC1CN(c2nc3ccccn3c(=O)c2/C=C(\C#N)C(N)=O)CC(C)O1` (centres undefined), which “growth rescue (activation)” value is on record?
Answer: inactive: -0.426%

Question: Which “growth rescue (activation)” value does the source give for `CCOC(=O)N1CCN(c2nc(-c3ccccc3)c3ccccc3n2)CC1` here?
Answer: inactive: 7.65%

Question: With `CCc1nnc2sc(-c3ccc(NC(=O)c4ccc5c(c4)OCCO5)cc3)nn12` as the compound, how does the “growth rescue (activation)” value read?
Answer: inactive: 10%

Question: Which “growth rescue (activation)” value does the source give for `O=C(NCCC(=O)N1CCN(C(=O)c2ccco2)CC1)c1ccccc1Cl` here?
Answer: inactive: 12.6%

Question: Which “growth rescue (activation)” value does the source give for `Cc1c(Cl)cccc1NC(=O)CCCn1nc([N+](=O)[O-])cc1C` here?
Answer: inactive: -5.54%

Question: Which “growth rescue (activation)” value does the source give for `COc1ccc(-c2nnc(N(C)C(=O)c3ccco3)s2)cc1OC` here?
Answer: inactive: -0.852%

Question: For `COc1cc(SC)ccc1C(=O)OCC(=O)N1CC(=O)Nc2ccccc21`, which “growth rescue (activation)” value is on record?
Answer: inactive: -11.1%

Question: For `COc1ccccc1CNC(=O)C1CCN(C(=O)c2sccc2-n2cccc2)CC1`, which “growth rescue (activation)” value is on record?
Answer: inactive: 7.44%

Question: With `O=c1c(Cl)c(N2CCN(c3ccccc3)CC2)cnn1C12CC3CC(CC(C3)C1)C2` as the compound, how does the “growth rescue (activation)” value read?
Answer: inactive: -0.134%

Question: With `CCn1cc(-c2cc(C(=O)O)c3ccccc3n2)cn1` as the compound, how does the “growth rescue (activation)” value read?
Answer: inactive: -16.3%

Question: With `COC(=O)CSc1nnc(-c2ccc(OC)c(OC)c2)o1` as the compound, how does the “growth rescue (activation)” value read?
Answer: inactive: 2.29%

Question: Which “growth rescue (activation)” value does the source give for `CCOC(=O)c1c(NC(=O)CNCC(O)CO)sc(C)c1C` (centres undefined) here?
Answer: inactive: 4.99%

Question: With `O=C(Cc1ccc(Br)cc1)NCCc1ccc(Cl)cc1Cl` as the compound, how does the “growth rescue (activation)” value read?
Answer: inactive: 3.46%

Question: Which “growth rescue (activation)” value does the source give for `O=C(COC(=O)c1ccc(O)cc1)NCc1ccc2c(c1)OCO2` here?
Answer: inactive: 11.2%

Question: With `COc1ccc(NC(=O)CN(C)C2CCCCC2)c([N+](=O)[O-])c1` as the compound, how does the “growth rescue (activation)” value read?
Answer: inactive: 16.7%

Question: For `CSc1ccc(S(=O)(=O)N2CCC(C(=O)NCc3cccnc3)CC2)cc1`, which “growth rescue (activation)” value is on record?
Answer: inactive: -6.77%

Question: With `Cc1nn(CC(=O)N2CCc3ccccc3C2)c(C)c1[N+](=O)[O-]` as the compound, how does the “growth rescue (activation)” value read?
Answer: inactive: 11.7%

Question: For `Cc1ccc(C)c2c1cc(C)c1nnc(SCC(=O)NCc3ccc4c(c3)OCO4)n12`, which “growth rescue (activation)” value is on record?
Answer: inactive: 19%

Question: For `Cc1ccc(-c2cc(C(=O)NC3CCCC3)no2)cc1`, which “growth rescue (activation)” value is on record?
Answer: inactive: -2.6%

Question: Which “growth rescue (activation)” value does the source give for `CC(C)n1nnnc1SCC(=O)NCc1ccco1` here?
Answer: inactive: 8.61%

Question: Which “growth rescue (activation)” value does the source give for `COc1cccc(/C=C/C(=O)OCC(=O)Nc2ccccc2Sc2ccccc2)c1` here?
Answer: inactive: 14.6%

Question: With `CC(NC(=O)c1ccco1)c1nc(-c2ccccc2)no1` (centres undefined) as the compound, how does the “growth rescue (activation)” value read?
Answer: inactive: 9.41%

Question: Which “growth rescue (activation)” value does the source give for `COc1cc(/C=N/NC(=O)CSc2n[nH]c(=O)[nH]c2=O)cc(OC)c1O` here?
Answer: inactive: -3.99%

Question: Which “growth rescue (activation)” value does the source give for `CN(C)c1nc2c(c(=O)n(C)c(=O)n2C)n1CC(=O)c1cccs1` here?
Answer: inactive: -17.4%

Question: With `CC(=O)N1CCN(c2ccc(S(=O)(=O)NCCN(C(C)C)C(C)C)cc2[N+](=O)[O-])CC1` as the compound, how does the “growth rescue (activation)” value read?
Answer: inactive: 9.42%

Question: With `Cc1ccc(CNC(=O)C2CCCN(c3nc4ccsc4c(=O)s3)C2)cc1` (centres undefined) as the compound, how does the “growth rescue (activation)” value read?
Answer: inactive: 3.1%

Question: For `CN(C)c1ccc(C(=O)N2CCCC2)cc1`, which “growth rescue (activation)” value is on record?
Answer: inactive: 4.11%

Question: Which “growth rescue (activation)” value does the source give for `COc1cc(C(=O)Nc2ccc3c(c2)N(C(=O)CCN(C)C)c2ccccc2CC3)cc(OC)c1OC` here?
Answer: inactive: 19.6%

Question: Which “growth rescue (activation)” value does the source give for `O=C(CCNS(=O)(=O)c1ccc(Br)s1)NCc1ccc(F)cc1` here?
Answer: inactive: -3.56%

Question: Which “growth rescue (activation)” value does the source give for `S=C(NCC1CCCO1)NC1CC1` (centres undefined) here?
Answer: inactive: -1.26%

Question: For `Cc1ccc(S(=O)(=O)NCC2CCC(C(=O)NCc3cccs3)CC2)cc1` (centres undefined), which “growth rescue (activation)” value is on record?
Answer: inactive: -3.55%

Question: For `COc1ccc(C(=O)CC(=O)C(=O)Nc2cccc([N+](=O)[O-])c2C)cc1`, which “growth rescue (activation)” value is on record?
Answer: inactive: -30.1%

Question: With `O=[N+]([O-])c1ccc(S(=O)(=O)N(CCCN2CCOCC2)Cc2cccs2)cc1` as the compound, how does the “growth rescue (activation)” value read?
Answer: inactive: -1.59%

Question: For `CCCNC(=O)c1cc(C2CCCCN2C(=O)c2ccc(NC(C)=O)cc2)on1` (centres undefined), which “growth rescue (activation)” value is on record?
Answer: inactive: 17.2%

Question: With `O=C(CCNC(=O)c1ccccc1Cl)NCCc1ccc(C(F)(F)F)cc1` as the compound, how does the “growth rescue (activation)” value read?
Answer: inactive: 17.4%

Question: With `CN(C)C(=O)CSc1nnc(-c2ccc(S(=O)(=O)N3CCCC3)cc2)n1C` as the compound, how does the “growth rescue (activation)” value read?
Answer: inactive: -17.5%

Question: For `Cc1csc(NC(=O)C(NC(=O)c2ccccc2F)C(C)C)n1` (centres undefined), which “growth rescue (activation)” value is on record?
Answer: inactive: -2.88%

Question: For `O=C(CCn1nnc2ccccc21)N1CCN(c2ccccc2)CC1`, which “growth rescue (activation)” value is on record?
Answer: inactive: 30.2%

Question: For `O=C(NCc1nc(-c2ccccc2)no1)Nc1ccc(F)cc1`, which “growth rescue (activation)” value is on record?
Answer: inactive: 7.25%

Question: With `C=C(C)Cn1c(CCn2c3ccccc3c3ccccc32)n[nH]c1=S` as the compound, how does the “growth rescue (activation)” value read?
Answer: inactive: 25.5%

Question: Which “growth rescue (activation)” value does the source give for `CSc1ccc(CNCC(O)c2ccccc2)cc1` (centres undefined) here?
Answer: inactive: 5.28%

Question: For `Cc1ccc2c(COC(=O)C3=COCCO3)cc(=O)oc2c1`, which “growth rescue (activation)” value is on record?
Answer: inactive: -26%

Question: With `COc1ccc(Cl)cc1NC(=S)N(CCN1CCOCC1)C1CCN(C(C)=O)CC1` as the compound, how does the “growth rescue (activation)” value read?
Answer: inactive: 14.6%

Question: For `CN(CC(=O)NCc1ccco1)CC(=O)Nc1ccc(F)c(F)c1F`, which “growth rescue (activation)” value is on record?
Answer: inactive: 6.88%
